Hit rate of the full screen: of about 48,000 compounds, about 550 (1.1%) were called active. Roughly 4% stayed inconclusive and do not appear here. Cut-off read from the data, not from the text of the source: active = potency below about 15 µM; inconclusive = mostly about 16 µM to 33 µM; inactive = weaker than that. The list shows a part of the results.
These compounds were tested against Lysosomal acid glucosylceramidase (Homo sapiens) (UniProt P04062) (assay: Glucocerebrosidase). Details: purified enzyme, resorufin glucoside fluorescence (screen aimed at inhibitors), 20 min.
In short: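 Compounds titrated against 0.2 nM normal enzyme, 30 uM resorufin beta-D-glucopyranoside substrate, citrate/phosphate buffer with taurocholate and tween-20, pH 5.9. Reaction ran 20 min at room temperature; fluorescence (Ex 548/Em 600) gave AC50.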
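Note: the screen sought inhibitors.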
Potency is the fitted concentration of half-maximal effect.

Chain of UniProt P04062 (P04062 whole entry, looked up): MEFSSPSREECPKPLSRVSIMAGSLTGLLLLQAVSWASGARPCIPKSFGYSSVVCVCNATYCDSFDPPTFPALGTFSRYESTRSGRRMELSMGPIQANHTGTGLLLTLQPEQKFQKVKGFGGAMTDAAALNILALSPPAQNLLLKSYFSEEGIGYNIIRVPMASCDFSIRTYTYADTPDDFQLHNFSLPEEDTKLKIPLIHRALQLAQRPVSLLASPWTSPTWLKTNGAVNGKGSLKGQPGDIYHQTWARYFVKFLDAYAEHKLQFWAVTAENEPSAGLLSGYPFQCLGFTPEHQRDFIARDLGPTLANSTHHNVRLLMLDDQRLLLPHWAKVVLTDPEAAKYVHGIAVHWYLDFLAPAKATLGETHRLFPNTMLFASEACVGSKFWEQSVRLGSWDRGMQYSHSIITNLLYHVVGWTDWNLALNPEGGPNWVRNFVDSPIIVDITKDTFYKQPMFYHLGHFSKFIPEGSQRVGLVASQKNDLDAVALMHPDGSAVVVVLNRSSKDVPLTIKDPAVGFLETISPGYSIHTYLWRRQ

Potency, inactive:
Cn1c(N)c(C(=O)COC(=O)c2cccs2)c(=O)n(C)c1=O > 76.9 µM
O=C(COC(=O)Cc1cn2ccsc2n1)NCc1ccc2c(c1)OCO2 > 76.9 µM
O=C(Oc1cccc2cccnc12)c1cccc(-n2cnnn2)c1 > 76.9 µM
CCOC(=O)C1=C(N)Oc2cc(C)n(CCc3ccc(OC)c(OC)c3)c(=O)c2C1c1cccnc1 (stereo not given) > 76.9 µM
O=C(NC1CCCC1)C(NS(=O)(=O)c1cccc2nsnc12)c1ccccc1 (stereo not given) > 76.9 µM
N=c1c2c(n(Cc3ccccc3)c3c1CCC3)CCC2 > 76.9 µM
COc1cc2nc(C3CC3)n(NC(=O)c3ccc(Cl)cc3)c(=O)c2cc1OC > 76.9 µM
CN1CCN(C(=O)c2ccc3c(=O)n(CCc4ccccc4)c(=S)[nH]c3c2)CC1 > 76.9 µM
CCOC(=O)Cn1nc(C)c(-c2ccccc2)c1N > 76.9 µM
CN1CCN(C(=O)C2(NC(=O)Nc3cccc(F)c3)CCCCC2)CC1 > 76.9 µM
c1ccc(Nc2nc(-c3cccnc3)cs2)nc1 > 76.9 µM
COCCNC(=O)CN(Cc1ccc2c(c1)OCO2)C(=O)CCC(=O)Nc1nccs1 > 76.9 µM
CC(C)c1nc(N2CCCC2)c(C#N)c2c1CCCC2 > 76.9 µM
Cc1ccc(S(=O)(=O)Nc2ccc3ncccc3c2)cc1
CCOc1ccc(CCNC(=O)C2CC(=O)N(C3CCCC3)C2)cc1OCC (stereo not given) > 76.9 µM
Cc1cccc(CN2CCN(C(=O)c3ccccc3F)CC2)c1 > 76.9 µM
COc1cc(C(=O)Nc2ccc(NC(=O)c3ccco3)nc2)cc(OC)c1OC > 76.9 µM
CCOC(=O)N1CCC(NC(=O)CCCN2C(=O)CSc3ncccc32)CC1 > 76.9 µM
Cc1c(C(=O)N2CCOCC2)oc2ccc(S(=O)(=O)N3CCCC3)cc12 > 76.9 µM
O=C(CSc1ccccc1C(=O)O)NCc1ccco1 > 76.9 µM
COc1ccc(-c2noc(CN(C(=O)c3ccc(OC(C)=O)cc3)C(C)C)n2)cc1OC > 76.9 µM
Cn1ncc2c1ncn1nc(CCc3ccccc3)nc21 > 76.9 µM
COc1cc(OC)cc(-c2nc3nc(C)c(CCC(=O)NCc4ccco4)c(C)n3n2)c1 > 76.9 µM
O=C(NCCOCC(F)(F)C(F)F)c1cc(F)c(F)cc1Cl > 76.9 µM
COc1ccccc1Cn1c(-c2ccco2)nc2nc3ccccc3nc21 > 76.9 µM

— PubChem BioAssay AID360 (National Center for Advancing Translational Sciences (NCATS), 2006)
